The other results are listed elsewhere or left out.

Sequences and labels used below:
T1: UNK ZnF1-3 (human, UniProt Q9C0B0 31-174)
T1 sequence: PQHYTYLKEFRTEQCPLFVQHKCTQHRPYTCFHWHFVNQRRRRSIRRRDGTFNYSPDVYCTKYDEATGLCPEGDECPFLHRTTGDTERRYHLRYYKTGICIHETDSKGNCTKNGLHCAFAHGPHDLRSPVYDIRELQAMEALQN

B1: chr3:9412954:9412955:+_ENSG00000134077_ENST00000452837|hu_mus|hu_hu_hu_mus_False|8_18 (ssRNA)
RNA: GGGAGUUCUACAGUCCGACGAUCGGUUGAUAUCUCUUCUUUGAUGGCUGGAUUUUCAUAAUAGUCCAAGAUAUGUGAAUCUGAAGUGCUGCUGGCAUGCUUUUUCUUACCAUCUUUCUGAUCGAUUUUGACUUCUUGUCCACACAACAGAGGAUUGAGCAUCA
B2: 195243423_195243543_1189_3pUTR_ENSG00000184203_ENST00000328432|human|control|control (ssRNA)
RNA: GGGAGUUCUACAGUCCGACGAUCAAUUAACCAGUGUUUUUACAAAAGUAAUGCAGUUUUGGACUGAUGAUAUUACACUGUAUUUGUGGUAAAGUACUAGGCACAAGAAUAUAUAUAUCGAUUAGGCAUUUUCAGUCUAAUCAGCAACAGAGGAUUGAGCAUCA
B3: chr16:16324163:16324164:-_ENSMUSG00000022789_ENSMUST00000023477|mus_hu|motif|central (ssRNA)
RNA: GGGAGUUCUACAGUCCGACGAUCUCUAAUGGCAGUCAAAAUGUCAAUAGUGUUAAGGCCACCAAGUGGAUCAACAGAUUCGGAGGUUCGCCCAAAAGUCUCAUGGAAAAUAUAACAAAUUCUAGCACCACCGCAUAGCUCCGACAACAGAGGAUUGAGCAUCA
B4: chr15:80081215:80081216:+_ENSMUSG00000022412_ENSMUST00000023048|mus_hu|FALSE|FALSE (ssRNA)
RNA: GGGAGUUCUACAGUCCGACGAUCCCUGCAAAUAACUUUGCAUUCAGCUUAUCCUGUGUGGGUCAUUAACAGUGUUCCCAUGAGAGACAUUCUCAGCAUUUAUGAAUGGGUCAGGAGGUUGGGGGGAGGAUGGACUUCUACUCCCAACAGAGGAUUGAGCAUCA
B5: chr16:8992458:8992459:-_ENSG00000187555_ENST00000381886|hu_mus|motif|central (ssRNA)
RNA: GGGAGUUCUACAGUCCGACGAUCUUGUCUUGGCUUGAAGAAUUGUAGAAGAUCUCUUAAAGUACCUUCGUAAUUAUGCCGGAGAGGAUUACCGGGGCCGUCCCUAUAACCUUGAGACUUGAAAAACUGCAGCAGCAUGGGGUCCAACAGAGGAUUGAGCAUCA
B6: chr2:39052001:39052002:-_ENSMUSG00000026753_ENSMUST00000028087|mus_hu|FALSE|FALSE (ssRNA)
RNA: GGGAGUUCUACAGUCCGACGAUCCAACUGGUAUCAAAUUAACACAUCAGCAUUACAAGUAUUAAAUGUUUUUCUAUUACUAUAGAGGAUAUAAACCAAAACAUUAAUAUGGCAGUUAUGUUCUUUAGGCACAGUUUAGUGAUUCAACAGAGGAUUGAGCAUCA
B7: 148321547_148323037_4512_CDS_ENSMUSG00000025261_ENSMUST00000112622|mouse|control|control (ssRNA)
RNA: GGGAGUUCUACAGUCCGACGAUCGGAGGCCUGUGGCAGGGUAGCCAUCUGACUGAUCCACUCUGAAACUGUUUUUGUGUCACUUGUUGUUAGAGGAAGAGCAGCUUUGAUCAAUACAUCAGCAGCUUCCCACACCUGGUUGACCAACAGAGGAUUGAGCAUCA
B8: chr7:141441981:141441982:+_ENSG00000106028_ENST00000265304|hu_mus|hu_hu_hu_mus_False|1_18 (ssRNA)
RNA: GGGAGUUCUACAGUCCGACGAUCCUCAUGUCUUACAAACUGACGAAAUACCUGUAACACAGGUCUUCGAAACAUGGCUUCUGUUUUUCUUACAACCUAAUCUUUAGGCUUUUCCUACCUGACGAUCAGAAAAGAGAAGCCCAGCAACAGAGGAUUGAGCAUCA
B9: chr1:153210542:153210543:+_ENSMUSG00000023150_ENSMUST00000023918|mus_mus|FALSE|FALSE (ssRNA)
RNA: GGGAGUUCUACAGUCCGACGAUCUUGCAGUUAGCAACAUCUACCCCACCCACCCUCCUUAUUCACAAGUGUACCUCUACUAAACACAAUUACAUCACUAAGCCUGUUAGUUUGGGGUUCUUAAAUUUGUUAAAACUGGAAAAUCAACAGAGGAUUGAGCAUCA
B10: chr3:150289932:150289933:+_ENSG00000144895_ENST00000460851|hu_hu|hu_hu_hu_mus_False|18_18 (ssRNA)
RNA: GGGAGUUCUACAGUCCGACGAUCCUUGUAGUUUUUAACAUCCCAUACUUCCAUUUGUCCUCGAAGAUUUCCAAAUCCAGCCAGCACUAAUAUAUGUCCAUGAGGGCUAUAGAAGGCUGCAUUACGAGGACCAGUCCCAAAGUCCAACAGAGGAUUGAGCAUCA
B11: chr14:55515796:55515797:+_ENSMUSG00000022194_ENSMUST00000116476|mus_mus|FALSE|FALSE (ssRNA)
RNA: GGGAGUUCUACAGUCCGACGAUCGAACAGGGACUCAUCUAAGGCCAGGGACGUCCUCACUGACUCUUUGUCCGAGAACUCUAUAUAUGCAAACCCUUUGGGAUGGCCACUAAAUUUGUCACAGAGUAUAGUAACACGGUUGACCAACAGAGGAUUGAGCAUCA
B12: chr1:192983433:192983434:-_ENSG00000116750_ENST00000367455|hu_hu|FALSE|FALSE (ssRNA)
RNA: GGGAGUUCUACAGUCCGACGAUCAUCACAAGGGAUUUGCAAUCACCAAAGAAGAUGCAGAUAAAAUAAACCACUCUUAAGCUAUGGAAAUUCCUAUUAAGGAAUUUUAUUAGAUUAAUAAGAAAAAUCCUUAUACCUAUUAAUCAACAGAGGAUUGAGCAUCA
B13: chr4:148702617:148702618:-_ENSMUSG00000028960_ENSMUST00000103212|mus_hu|FALSE|FALSE (ssRNA)
RNA: GGGAGUUCUACAGUCCGACGAUCUUAGGAAUUGAACAGAGGACAUUGUCUGUGGAGGGAAAAAAGGAAAAGAAAAAAGAAAGUAUGCUUUUUAUAGACUUAAUUUCUUCAGAACACUUUAUGGUUUCAAAUCCUUUUUUUUUUCAACAGAGGAUUGAGCAUCA
B14: chr11:77336104:77336105:-_ENSG00000074201_ENST00000525064|hu_mus|hu_hu_hu_mus_False|28_68 (ssRNA)
RNA: GGGAGUUCUACAGUCCGACGAUCCUCACACAUUGCUGUGAACAUCGCCUCCAAUGCUGACUUAUCACUAGGCACAAAUCGAAAUUCAGAAAUGGGUUCAACAUCAUCAUCACUGUCCUCAUCUUCAUCAGAGAGAGGUUCUUUCAACAGAGGAUUGAGCAUCA
B15: 99631881_99632001_2047_3pUTR_ENSG00000106261_ENST00000324306|human|control|control (ssRNA)
RNA: GGGAGUUCUACAGUCCGACGAUCGAUUAUAUGCCCAACUACUACAUAAAGGCAGAACACUGCUGAUGUGACUAGAAGGAUCCUUAAGUGUGACUUUUGUUUUUUAAUCUGUUGAGGCUGUAUUUCUUUUUCCCUCCAGGAGCACAACAGAGGAUUGAGCAUCA
B16: 142888890_142889010_6276_CDS_ENSMUSG00000031004_ENSMUST00000033310|mouse|control|control (ssRNA)
RNA: GGGAGUUCUACAGUCCGACGAUCGGGCUGAGCCCUGAUCUUAGGUGUCUGUGGCCUCCUCUUAUGUCCUGAUGAAUUUCCUGUGAAAUCCAGUUUCUGCUUUGGAGUUUCCAUGAAGGCUGUGCUGUCAUUUUCUUCCUGCACCAACAGAGGAUUGAGCAUCA
B17: chrX:71549762:71549763:+_ENSMUSG00000019087_ENSMUST00000019231|mus_mus|mus_mus_mus_hu_False|8_98 (ssRNA)
RNA: GGGAGUUCUACAGUCCGACGAUCAAACCCGUGUACUCACUCUUAACAGCACAACAUCACCAGAAAACGAUAACGACAGCCAAGCAGGACAGACAGUUAAGUAGUACUUCCACACUCCCAAACUCAGAGGAACCUCAAACCUUACAACAGAGGAUUGAGCAUCA
B18: chr1:201104638:201104639:-_ENSG00000116857_ENST00000367334|hu_hu|motif|central (ssRNA)
RNA: GGGAGUUCUACAGUCCGACGAUCAGAGAUCAGAGACCACAUCCCUCUUCCCUAAUCAAAAUAGCCAAGUACAACAUUUCGGAAGUUAGGGAGAAGGAGGAAAAAUGCCACAGGCUUUUAAAGGGAAGACUGGAACCGAGGGAACAACAGAGGAUUGAGCAUCA
B19: chr12:28025581:28025582:-_ENSMUSG00000063632_ENSMUST00000079063|mus_mus|motif|central (ssRNA)
RNA: GGGAGUUCUACAGUCCGACGAUCUUUUUAAAUCUCUUAAGAAAAAAAAAUCAACUCCCUAGAGUAACAGUUGUGCCGUCGGAAGGGUCCUCUGCCGAUGUCUUUCAGACUUCAAAGAGCCACAAGCUUCAAACAGCGCCUUCCCAACAGAGGAUUGAGCAUCA
B20: chr7:141438946:141438947:+_ENSG00000106028_ENST00000265304|hu_mus|hu_hu_hu_mus_True|1_18 (ssRNA)
RNA: GGGAGUUCUACAGUCCGACGAUCGACGAAAUACCUGUAACACAGGUCUUCGAAACAUGGCUUCUGUUUUUCUUACAACCUAAUCUUUAGGCUUUUCCUAAAGGAAAGAAAGAAAAGGCCCAGCCACUAAAUCAAGAACUUCCGCAACAGAGGAUUGAGCAUCA
B21: 21830776_21831005_918_3pUTR_ENSMUSG00000003410_ENSMUST00000003501|mouse|control|control (ssRNA)
RNA: GGGAGUUCUACAGUCCGACGAUCCCUUGAUGGCCUCCUCUGCCUCGAUCCUCUUGUCAAAGCGGAUGAAUCCCACACCCCGAGAGACACCUGUGGCCUGGUCCAGCAGGAUUCUGGAAGUGAUGAUUCGGCCGUACUGGGAGACAACAGAGGAUUGAGCAUCA
B22: chr17:65740002:65740003:+_ENSG00000130935_ENST00000581375|hu_hu|hu_hu_hu_mus_False|48_78 (ssRNA)
RNA: GGGAGUUCUACAGUCCGACGAUCAACAAAUCUUUCUUCCCUGGACGAACAGGAAGACAUAAAAGAGAAAAAAUAUAUAUCCAUCAAGGAGAAUUGAGUGGCCACACCUUUACUCCCAGCACUUUGGGAGGUGGAUCUCUGAGUCAACAGAGGAUUGAGCAUCA

This test has as its target T1, UNK ZnF1-3. The test is described as follows: nsRBNS (natural sequence RNA bind-n-seq); RBNS binding buffer (assumed for nsRBNS): 25 mM Tris pH 7.5, 150 mM KCl, 3 mM MgCl2, 0.01% Triton X-100, 500 ug/ml BSA, 20 U/ml SUPERase-In, 4 C; UNK is unkempt and MSI1 is Musashi-1; names of the RNAs are library labels; protein concentration not given here; high values mean tight binding.
Take B1: the binding signal was 0.353 enrichment R.
Regarding B2, the binding signal was determined as 0.761 enrichment R.
The molecule B3 returned a binding signal of 1.28 enrichment R.
The value for B4 was 1.11 enrichment R; that for B5 was 1.9 enrichment R.
In turn, B6 came in with a binding signal of 0.817 enrichment R.
The molecule B7 displayed a binding signal of 1.96 enrichment R.
Molecule B8 registered a binding signal of 0.623 enrichment R.
The result for B9 reads 2.09 enrichment R.
B10 returned a binding signal of 1.18 enrichment R.
The result for B11 reads 1.91 enrichment R.
The value for B12 was 0.34 enrichment R; that for B13 was 0.855 enrichment R; that for B14 was 1.08 enrichment R.
The result for B15 reads 1.32 enrichment R; that for B16, 0.532 enrichment R; that for B17, 1.86 enrichment R.
For B18, the binding signal is 2.05 enrichment R.
The value for B19 was 0.418 enrichment R; that for B20 was 0.796 enrichment R; that for B21 was 0.954 enrichment R.
The value for B22 was 1.56 enrichment R.
